The list shows a part of the results.
B1: chr7:6023389:6023508:+|CDS|ENSG00000106305|unk|total|mutant (ssRNA)
RNA: GGGAGUUCUACAGUCCGACGAUCGUUCUCUCUGUUUGGCCAGAAGCAUAAUGCUGUCAACGCAACCCUUACCGACCGCUGGGCCGAUAUUGCGAUUUUUCAGUUAAAAGAGGGAAGCAGUAAAGAAAAAGCCGCUGUUUUCCGCAACAGAGGAUUGAGCAUCA
B2: chr2:20282997:20283108:-|CDS|ENSG00000055917|unk|FALSE|unique (ssRNA)
RNA: GGGAGUUCUACAGUCCGACGAUCACUAAUCUGCAAUCUAAUUCAUUUUAUGGAAGCAGUUCUUUGACUAAUAGCUCCCAGAGUAGUUCUUUAUUUUCUCAUGGACCUGGUCAACCUGGAAGUACAUCUCUUGGCUUUGGAAGUCAACAGAGGAUUGAGCAUCA
B3: chr13:101061967:101062118:-|CDS|ENSG00000102452|control|control|control (ssRNA)
RNA: GGGAGUUCUACAGUCCGACGAUCCAUCCGGAAGAGCUUGCAGCUGGAGGAACUCCUGGCGAGGGAGCAGCUGGAGUACACCAUAGAGGAGGAGGUGGCCAAGCAGACCAUCCGCAUGUGGCUCAAGAAGUGCCUGAAGCGCAUCAACAGAGGAUUGAGCAUCA
B4: ENSG00000070961:be:win_5251|3pUTR|ENSG00000070961|bound_else_gene|NA|bound_elsewhere_windowed (ssRNA)
RNA: GGGAGUUCUACAGUCCGACGAUCUGGAUUCUUUAGCUCUCUUUUUCUUUCCUUCAUCUACCUUCUUCUCUUUUUUGCCUCUGUCUUUACCCUUUAGAAACUGGCAUGUGUUAGGGCCCAGAUUUCACCAGAUACACAAUCCUCCAACAGAGGAUUGAGCAUCA
B5: chr16:18841627:18841728:-|CDS|ENSG00000157106|msi1|FALSE|bound_elsewhere (ssRNA)
RNA: GGGAGUUCUACAGUCCGACGAUCUACAAUUAAUCGCCAAGAAACACCCCGGUUCCAUGCUCGACACUAUUCUGUAACACCACUAGGAACAAGAUCAGGACUAAUCCAGUGGGUAGAUGGAGCCACACCCUUAUUUGGUCUUUACAACAGAGGAUUGAGCAUCA
B6: chr1:225491636:225491737:-|3pUTR|ENSG00000154380|msi1|FALSE|unique (ssRNA)
RNA: GGGAGUUCUACAGUCCGACGAUCGUACUUUGAAUUCCAUAGGAAAAAGCACUCAGAAGAAAAAGUCUACAUUGGCUAGUGUUUAGAUUGAGAGUUAAUUUUCCCAUCAAGUCCAAAAGUUUCCAUCCAAGUCUAUAGAAACUGCAACAGAGGAUUGAGCAUCA
B7: ENSG00000198589:be:win_4551|CDS|ENSG00000198589|bound_else_gene|NA|bound_elsewhere_windowed (ssRNA)
RNA: GGGAGUUCUACAGUCCGACGAUCAGUUGUUUUCAGAGACAUAGAGGAUAGCAAACAAGCUCAAUUUUUAGCCUUGGCAGUAGUAUACUUUAUCUCUGUUCUUAUGGUCUCCAAGUACAGAGACAUUUUGGAACCCCAAAAUGACAACAGAGGAUUGAGCAUCA
B8: chrX:141173234:141176580:-|three_prime_utr|ENSG00000182195|control|control|control (ssRNA)
RNA: GGGAGUUCUACAGUCCGACGAUCCUUGCCCUCCGGUCCCCUUACCUACCCGCGCCCGUCUGCUCUCUCUCUUCAUUUCUCCGUAGUGCUUGUCUUUGUUCCAGGAAUAGCGCUCCAGUUACCUGCUGCUGGGGUCGGGGCUGGCAACAGAGGAUUGAGCAUCA
B9: ENSG00000181544:stop:overlap|stop_codon|ENSG00000181544|stop_codon|NA|stop_codon (ssRNA)
RNA: GGGAGUUCUACAGUCCGACGAUCAUACUUCAUGUGAGUGGAAUCAUAGAGUAUUUAUAUUUUUGUACCUGGCUUAUUUUACUUAGCAUAAUGUCCUUGAGGUUCAUUCGUGUCAUAGCUUGUGACACUAUUUCCUUCUGUUUACAACAGAGGAUUGAGCAUCA
B10: ENSG00000090612:stop:overlap|stop_codon|ENSG00000090612|stop_codon|NA|stop_codon (ssRNA)
RNA: GGGAGUUCUACAGUCCGACGAUCUGCUCACCACAACGUCUGCUUCCCGAGUUCAAGUGGUUCUCUUGCCUCAGCCUCCUGAGUAGCUGGGAUUACAGGUCCCACCUCUCCAAGAACGAAACAGUUCAUGGGAUAGGAUCAGAACAACAGAGGAUUGAGCAUCA
B11: chr15:38484694:38484795:+|3pUTR|ENSG00000171262|unk|total|mutant (ssRNA)
RNA: GGGAGUUCUACAGUCCGACGAUCAUCCGAAACCGUGUUCCAAAUAACAUACUUGAAUAUCAUCUUUGAAGUAAACACCAUGUCCGACUCCCUGGUGAUACCACUCUUGAAUUGGUUAAUAUGUAAGAACAUUGUUUUUUAUUACAACAGAGGAUUGAGCAUCA
B12: chr15:59095394:59095499:+|3pUTR|ENSG00000157450|unk|total|mutant (ssRNA)
RNA: GGGAGUUCUACAGUCCGACGAUCUAAAUACCAUCCUUAAUACUGGGAACAGAAUACAACCCAUAUAAAUCAGAUGCAGGUGGCCGUCACAUCACCAGAGUGAUCAGUAUAAAUUUUCUUGGUGUAUCCUUUUCCUUUCAACACCAACAGAGGAUUGAGCAUCA
B13: chr2:135868693:135868794:-|CDS|ENSG00000076003|msi1|total|mutant (ssRNA)
RNA: GGGAGUUCUACAGUCCGACGAUCCCCAGAGCUUGUGAGCGGAACUUUUCUGUGCUUGGACUGUCAGACAGUGAUCAGGGAUGCCGAACAGCAGUUCAAAUACACACAGCCAAACAUCUGCCGAAAUCCAGUUUGUGCCAACAGCAACAGAGGAUUGAGCAUCA
B14: chr4:41958937:41959038:+|3pUTR|ENSG00000109133|msi1|FALSE|unique (ssRNA)
RNA: GGGAGUUCUACAGUCCGACGAUCUCUUGAACUCCUGGCCUCAAGUGAUCUGCCCGCCUCGACCUCCCAGAGUGCUGGGAUUAUAGGUGUGAGCCACUAAGCCUGGCUGAGACAACUAGUUUCCCUUAACUCAUUGGAAUUCUCCAACAGAGGAUUGAGCAUCA
B15: chr15:38470281:38470388:+|CDS|ENSG00000171262|unk|total|mutant (ssRNA)
RNA: GGGAGUUCUACAGUCCGACGAUCCUUCAAGCUUCACAGAUAUUACAGAACAAGAAACAUAAAAAUUCUCAAUCCGAUAAAAACCGUGAAGUUUAUCAGGAAGUUCAAGCUAUGUUUGAUACACUUGGUAUACCCAAGUCAACACAACAGAGGAUUGAGCAUCA
B16: chr7:30013596:30013706:-|3pUTR|ENSG00000106080|msi1|FALSE|unique (ssRNA)
RNA: GGGAGUUCUACAGUCCGACGAUCUUAUAUUCAAUAUUUACUUCUUAAGGCUAGCGGAAUAUCCUUCCUGGUUCUUUAAUGGGUAGUCUAUAGUAUAUUAUACUACAAUAACAUUGUAUCAUAAGAUAAAGUAGUAAACCAGUCCAACAGAGGAUUGAGCAUCA
B17: ENSG00000140939:stop:overlap|stop_codon|ENSG00000140939|stop_codon|NA|stop_codon (ssRNA)
RNA: GGGAGUUCUACAGUCCGACGAUCCGAGUCCGAAGAUUCCUGAAGGCCAGAGCUCUGACAGGCGGUGCCCCGCCCAUGCUGGAUAGGACCUGGGAUGCUGCUGGAGCUGAAUCGGAUGCCACCAAGGCUCGGUCCAGCCCAGUACAACAGAGGAUUGAGCAUCA
B18: chr10:128103381:128103482:-|CDS|ENSG00000148773|msi1|total|mutant (ssRNA)
RNA: GGGAGUUCUACAGUCCGACGAUCAACUGGCAGCAGGAGACGGCCAAGAGCACCCAGGGAAAGUGCCCAAGCCACCGAAGACCCCGCUGGCUUCAAAGACCCAGCAGCAGGUCACACUGAAGAAUCAAUGACUGAUGACAAAACCAACAGAGGAUUGAGCAUCA
B19: ENSG00000198589:be:win_1851|CDS|ENSG00000198589|bound_else_gene|NA|bound_elsewhere_windowed (ssRNA)
RNA: GGGAGUUCUACAGUCCGACGAUCCAUGCACACGCUGAAGUACUACUACUGGGCAGUGAAUCCUCAGGAUCGAAGUGGUAUCACCCCAAAAGGAUUAGAUGGACCGCGACCUAAUCAAAAAGAAAUGCUUUCUCUACGAGCAUUCAACAGAGGAUUGAGCAUCA
B20: chr1:88684422:88684524:+|5pUTR|ENSG00000065243|unk|FALSE|unique (ssRNA)
RNA: GGGAGUUCUACAGUCCGACGAUCUCGAUGAACCGGACGGAAUAAGCCGCGCCUCCAGCAGGGGCUGCGCCUCCAUGAAUCCCUAGUUGUUUUUUUUUUUUUCUUUCUCUCCCCUCUCCUCACCCCCACCCCGAGCCCCGUCCCCAACAGAGGAUUGAGCAUCA
B21: chr22:42796501:42797587:-|three_prime_utr|ENSG00000242247|control|control|control (ssRNA)
RNA: GGGAGUUCUACAGUCCGACGAUCGGAGAAAUUCCUCUUUAAAUGAACAAGUAACCACAUCUCAGGCGGCAGUGAAGUCCAGAUAGUUUUGCAGAUUGUUUUGCUACUUUUUCAUAUGGUAUAUGUUUCUGAUUUUUAAUAUUUCAACAGAGGAUUGAGCAUCA
B22: chr15:74955373:74955475:-|3pUTR|ENSG00000178718|unk|FALSE|unique (ssRNA)
RNA: GGGAGUUCUACAGUCCGACGAUCGGACAGUUUUCCUUUCUAGUUUUCUUUCCCCUGCUUCAGAGGAGCAUCUCUGAGGGUUCUAGCUCUUUUAACACCCCUUUUCCCCCUGCUGGCCCAGAGGGAGACCCAGGACUGAACUCUCAACAGAGGAUUGAGCAUCA

These binders were tested against MSI1 full-length (mouse, UniProt Q61474 1-362) (assay: nsRBNS (natural sequence RNA bind-n-seq); RBNS binding buffer (assumed for nsRBNS): 25 mM Tris pH 7.5, 150 mM KCl, 3 mM MgCl2, 0.01% Triton X-100, 500 ug/ml BSA, 20 U/ml SUPERase-In, 4 C; UNK is unkempt and MSI1 is Musashi-1; names of the RNAs are library labels; protein concentration not given here; high values mean tight binding).
UniProt Q61474, sequence (Q61474 whole entry): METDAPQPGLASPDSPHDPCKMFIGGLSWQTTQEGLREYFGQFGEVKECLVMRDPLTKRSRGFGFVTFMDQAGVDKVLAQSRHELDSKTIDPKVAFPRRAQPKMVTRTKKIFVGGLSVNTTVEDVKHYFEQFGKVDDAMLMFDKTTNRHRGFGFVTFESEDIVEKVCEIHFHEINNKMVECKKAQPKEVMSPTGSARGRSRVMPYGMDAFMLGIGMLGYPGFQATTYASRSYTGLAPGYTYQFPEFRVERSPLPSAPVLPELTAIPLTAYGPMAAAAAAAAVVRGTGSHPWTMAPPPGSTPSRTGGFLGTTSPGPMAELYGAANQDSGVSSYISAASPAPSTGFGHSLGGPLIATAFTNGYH
In the case of B1, the binding signal is reported as 0.367 enrichment R.
Work on B2 yielded a binding signal of 0.97 enrichment R.
For B3, the binding signal was 0.618 enrichment R.
In the case of B4, the binding signal is reported as 1.28 enrichment R.
B5 gave a binding signal of 0.768 enrichment R.
B6 was tested, and the binding signal was 1.05 enrichment R.
B7 was tested, and the binding signal was 1.67 enrichment R.
Binder B8 has a binding signal of 1.07 enrichment R.
For B9, the binding signal was 1.66 enrichment R.
Work on B10 yielded a binding signal of 0.562 enrichment R.
For B11, the binding signal was 0.321 enrichment R.
For B12, the binding signal was 0.576 enrichment R.
In the case of B13, the binding signal is reported as 0.443 enrichment R.
In the case of B14, the binding signal is reported as 0.442 enrichment R.
B15 was tested, and the binding signal was 0.182 enrichment R.
In the case of B16, the binding signal is reported as 8.22 enrichment R.
Binder B17 has a binding signal of 0.41 enrichment R.
B18 gave a binding signal of 0.41 enrichment R.
With B19 the binding signal was 0.391 enrichment R.
Binder B20 has a binding signal of 1.95 enrichment R.
Work on B21 yielded a binding signal of 1.45 enrichment R.
Work on B22 yielded a binding signal of 1.16 enrichment R.

— article PMC12136788
